Source: PubChem BioAssay AID1508642 (National Center for Advancing Translational Sciences (NCATS), 2021)
Hit rate of the full screen: of about 43,000 compounds, about 200 (0.47%) were called active. Inconclusive means that the source gave no clear call. Such entries were picked first, then a sample of the others. Calls follow the shape of the dose curve; as a rule, active = well fitted cell-killing curve with a large enough effect; inconclusive = small, poorly fitted or top-dose-only effect, or effect the other way; inactive = flat fitted curve, though single readings scatter. Potencies of inconclusive entries are doubtful fits and often do not repeat.
Potency is read from the fitted curve at half-maximal effect; tags tell the direction and shape of the fitted curve.

Assay: Cell viability qHTS assay in S16 Pmp22-F2sN cells; also: nearly all actives have a fitted effect of over 65% in size
Settings: S16 Pmp22-F2sN Schwann cells (luciferase reporters placed in the Pmp22 gene) viability, CellTiter-Glo, 24 h; series mostly up to 57.5 µM
How it was run: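 Rat S16 Schwann reporter line, 24 h treatment with library compounds delivered at 23 nL per well. Cell viability by CellTiter-Glo luminescence.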
With CC1=C(C(=O)OC2CCCC2)C(c2ccccc2C(F)(F)F)CC(=O)N1 (stereo unspecified) the Potency was inconclusive: 31.6 µM [rising, partial curve, poor fit]. With O=S(=O)(c1ccc(-c2cnc(C3CC3)o2)cc1)N1CCN(c2ccccc2)CC1 the Potency was inconclusive: 7.08 µM [cytotoxic, single point]. With Cc1cc(NC(=O)CSc2nc(-c3ccccc3F)nc3c2c(=O)n(C)c(=O)n3C)no1 the Potency was “inactive”. With COc1cc(C(=O)NCC(c2ccc(N(C)C)cc2)N2CCc3ccccc32)cc(OC)c1OC (stereo unspecified) the Potency was inconclusive: 28.2 µM [cytotoxic, single point]. In the case of Cc1ccc(C)c(N2CCN(C(=O)c3cc4ccc5cccnc5c4[nH]3)CC2)c1, the Potency is reported as “inactive”. For Cc1ccc(NC(=O)N2CCC(N3CCN(Cc4ccccc4)C(=O)C3=O)CC2)cc1Cl, the Potency was “inactive”. For O=C(Nc1ccc(-c2cc(C(F)(F)F)nn2-c2ccccc2)cc1)c1cccc(F)c1, the Potency was inconclusive: 39.8 µM [cytotoxic, single point]. For CCN1CCC(N(Cc2cccc(OC)c2)C(=O)Nc2cccc(C(F)(F)F)c2)CC1, the Potency was inconclusive: 39.8 µM [cytotoxic, single point]. With CCOc1ccc(C2c3c(-c4ccc(C)cc4)n[nH]c3C(=O)N2c2ccc(Cl)cc2)cc1 (stereo unspecified) the Potency was inconclusive: 39.8 µM [cytotoxic, single point]. In the case of O=C(CC1N=C2c3ccccc3N=C(SCc3ccc(Cl)cc3)N2C1=O)NCCc1ccccc1 (stereo unspecified), the Potency is reported as inconclusive: 39.8 µM [cytotoxic, single point]. For COc1ccc(OC)c(Nc2nc(-c3ccc(C)cc3)nc3ccccc23)c1, the Potency was inconclusive: 0.0178 µM [cytotoxic, full curve, poor fit]. For COc1cc(NC(=O)C(CC(C)C)NS(=O)(=O)c2ccc3c(c2)CCCC(=O)N3)cc(OC)c1 (stereo unspecified), the Potency was inconclusive: 39.8 µM [rising, single point]. In the case of COc1cccc(NC(=O)c2sc3nc(N4CCOCC4)c4c(c3c2N)CC(C)(C)OC4)c1, the Potency is reported as inconclusive: 8.91 µM [cytotoxic, partial curve, poor fit]. With CCOC(=O)c1c(NC(C)=O)c2c3c(sc2n1Cc1nc(-c2ccccc2OCC)oc1C)CCCC3 the Potency was inconclusive: 0.0251 µM [cytotoxic, full curve, poor fit]. In the case of COc1cccc(NC(=O)Cn2cc(C(=O)C3CCCCC3)c3ccccc32)c1, the Potency is reported as inconclusive: 39.8 µM [cytotoxic, partial curve, poor fit]. In the case of COc1cc(C)c(Cl)cc1S(=O)(=O)NCCc1c(C)[nH]c2ccccc12, the Potency is reported as “inactive”.
